From publication PMC7819943, “Rice protein-binding microarrays: a tool to detect cis-acting elements near promoter regions in rice”
The other results are listed elsewhere or left out.

These sequences were tested against T1, OsWOX13 (Oryza sativa, UniProt Q5QMM3 1-267) (assay: protein-binding microarray (RPBM); PBS, 2% BSA, 51.3 ng/ul salmon testes DNA, 50 uM zinc acetate, 200 nM TF, 25 C, 1 h; high values mean tight binding). Conditions: protein: recombinant; tags: N-terminal polyhistidine and DsRed monomer fusion (pET32a); label: CyDye5-dUTP incorporated in the synthesized complementary strand; 3' TTTTT single-stranded linker to array surface; dsDNA, one strand shown.
T1 sequence: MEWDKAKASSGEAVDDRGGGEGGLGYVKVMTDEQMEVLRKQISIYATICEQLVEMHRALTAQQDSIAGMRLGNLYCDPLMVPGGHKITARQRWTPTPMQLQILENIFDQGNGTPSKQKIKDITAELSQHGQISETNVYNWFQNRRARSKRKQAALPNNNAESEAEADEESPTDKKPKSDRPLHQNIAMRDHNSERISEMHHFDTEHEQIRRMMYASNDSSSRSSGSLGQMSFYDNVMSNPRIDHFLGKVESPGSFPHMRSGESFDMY
Summary of the method: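 Using Ni–NTA, transcription factors fused N-terminally to polyhistidine and DsRed were purified after expression in E. coli BL21-CodonPlus. These were incubated at 200 nM with a blocked, double-stranded custom Agilent array for 1 h at 25 °C in a buffer containing 50 µM zinc acetate, and the array was washed. The binding signal is per-feature fluorescence intensity (arbitrary units) on an Axon 4000B scanner.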

Question: “CAGATTAATTGTTATTCATATATATACATTGACACTCGTTCGGAGTCACCTAGTGCAG” was tested. Which binding signal did it give?
Answer: The binding signal was 34500 fluorescence intensity (a.u.).

Question: “TTAAAATTGATGGACAACATTAATTATTATTTAAGTAAAACGGAGTCACCTAGTGCAG” was tested. Which binding signal did it give?
Answer: The binding signal was 28300 fluorescence intensity (a.u.).

Question: For “ACGTTTGATATGATAGAATGTAAAGTTTTGGGATGGGATGCGGAGTCACCTAGTGCAG”, which binding signal is on record?
Answer: Its binding signal is 6280 fluorescence intensity (a.u.).

Question: Which binding signal does the source give for “TTTTCTGATTAATATGAGAATTTCTAAGCCGTGAGAACGACGGAGTCACCTAGTGCAG” here?
Answer: The binding signal was 11800 fluorescence intensity (a.u.).

Question: With “CTCGATACTTAATTGTCTGCCTTAGACGACGTCCGCAGACCGGAGTCACCTAGTGCAG” as the sequence, how does the binding signal read?
Answer: The binding signal was 6060 fluorescence intensity (a.u.).

Question: “GTCTTCCGCGGCGGCGGCGGGGAAGCGGGCGCGGGCGGGGCGGAGTCACCTAGTGCAG” was tested. Which binding signal did it give?
Answer: The binding signal was 8250 fluorescence intensity (a.u.).

Question: For “GCAGTCCAACCAATCAGCCAAGTTGGTCAAAGGAGAGAGACGGAGTCACCTAGTGCAG”, which binding signal is on record?
Answer: The binding signal was 3950 fluorescence intensity (a.u.).

Question: For “ACCTTAATCGATCTTAATTAATCGCTAACCTTTATGTCATCGGAGTCACCTAGTGCAG”, which binding signal is on record?
Answer: Its binding signal is 21000 fluorescence intensity (a.u.).

Question: How did the binding signal turn out when “CAATTATAACAAAATTGACAGCAAATGGTGCATACTATTTCGGAGTCACCTAGTGCAG” was run?
Answer: Its binding signal is 20500 fluorescence intensity (a.u.).

Question: How did the binding signal turn out when “GGTGTGTTTATAATTAATATACAGATTGTGTCACATTGTTCGGAGTCACCTAGTGCAG” was run?
Answer: The binding signal was 8600 fluorescence intensity (a.u.).

Question: “GTTAACAATTCTTACCCTACCAATCATCTGTTAGACTATTCGGAGTCACCTAGTGCAG” was tested. Which binding signal did it give?
Answer: Its binding signal is 4790 fluorescence intensity (a.u.).

Question: How did the binding signal turn out when “TAAAATTCCAATTGACAAGTACAATGACAAGATTGGTTACCGGAGTCACCTAGTGCAG” was run?
Answer: The binding signal was 19900 fluorescence intensity (a.u.).

Question: “TAATAAATTTGAGATTAAGACTTTATACATTAAGTGTAATCGGAGTCACCTAGTGCAG” was tested. Which binding signal did it give?
Answer: The binding signal was 9220 fluorescence intensity (a.u.).

Question: Which binding signal does the source give for “GCTTATGATAGAATACTGACTATAGCAATATCAGGATATACGGAGTCACCTAGTGCAG” here?
Answer: The binding signal was 6330 fluorescence intensity (a.u.).

Question: Which binding signal does the source give for “TAATAATTACCCTAATAATTTGCATGTGCCAAGCTTAGATCGGAGTCACCTAGTGCAG” here?
Answer: Its binding signal is 39000 fluorescence intensity (a.u.).

Question: With “TGGTGATGTGTAATTTTGTCTATAACTATTAATGTTAGGGCGGAGTCACCTAGTGCAG” as the sequence, how does the binding signal read?
Answer: The binding signal was 18300 fluorescence intensity (a.u.).

Question: For “ACACATAATCACTATCAACTAAACACTTAAATACATCTCACGGAGTCACCTAGTGCAG”, which binding signal is on record?
Answer: The binding signal was 6810 fluorescence intensity (a.u.).

Question: With “AATTTAGAAAATAATCAACATGATTATAAAACAGATGAAGCGGAGTCACCTAGTGCAG” as the sequence, how does the binding signal read?
Answer: Its binding signal is 5030 fluorescence intensity (a.u.).

Question: Which binding signal does the source give for “TGCCCTTCTCTGCAGGTGATTGCTTAGGAAACAGACCAAGCGGAGTCACCTAGTGCAG” here?
Answer: The binding signal was 3660 fluorescence intensity (a.u.).

Question: Which binding signal does the source give for “CGTCAGTCACCTATCCCAAATTGCTCCAGGCCAAGCACGCCGGAGTCACCTAGTGCAG” here?
Answer: Its binding signal is 4720 fluorescence intensity (a.u.).

Question: With “GTTGACTAGTATTTTCTTTCTTTTGATAAGATTTTCCCCACGGAGTCACCTAGTGCAG” as the sequence, how does the binding signal read?
Answer: The binding signal was 4380 fluorescence intensity (a.u.).

Question: With “TTAATTGTAAGTTTAACTATTGCTACTTCGCTTGCAGCGTCGGAGTCACCTAGTGCAG” as the sequence, how does the binding signal read?
Answer: Its binding signal is 13600 fluorescence intensity (a.u.).

Question: How did the binding signal turn out when “AAGTGACCGAAATTGAATGAAAATTGTGCCGTCATATTTTCGGAGTCACCTAGTGCAG” was run?
Answer: The binding signal was 14500 fluorescence intensity (a.u.).

Question: With “CTATGCAAAATCTATATGATTTGTCCAATTTACCGTTACGCGGAGTCACCTAGTGCAG” as the sequence, how does the binding signal read?
Answer: Its binding signal is 4980 fluorescence intensity (a.u.).

Question: With “GTGTTGTGATTCAATTAATTTGGCAGACACCAATTTGCTGCGGAGTCACCTAGTGCAG” as the sequence, how does the binding signal read?
Answer: The binding signal was 23200 fluorescence intensity (a.u.).

Question: “CGAACTTTTGTCAATTAATACCGATATTGGCACAATGGCACGGAGTCACCTAGTGCAG” was tested. Which binding signal did it give?
Answer: Its binding signal is 23700 fluorescence intensity (a.u.).

Question: Which binding signal does the source give for “TCTTAATCTCAATCTAACAACAGTACAGATCAACAAGTTTCGGAGTCACCTAGTGCAG” here?
Answer: The binding signal was 4380 fluorescence intensity (a.u.).

Question: For “CACAAATTTGAACAAACACATTCATGATTCATCCCCTCCACGGAGTCACCTAGTGCAG”, which binding signal is on record?
Answer: Its binding signal is 21700 fluorescence intensity (a.u.).

Question: For “ATGGCAATTACACACCGCCCCATCAGCCCCGTACTCGCTCCGGAGTCACCTAGTGCAG”, which binding signal is on record?
Answer: Its binding signal is 3700 fluorescence intensity (a.u.).

Question: With “AGAAGATTTATAACTTGTTGAGAAAACGTTAATCGTATTGCGGAGTCACCTAGTGCAG” as the sequence, how does the binding signal read?
Answer: Its binding signal is 5330 fluorescence intensity (a.u.).

Question: How did the binding signal turn out when “CTCAAAATTTAAATTTAAGGTTAAAAGTTAAAATTTTACGCGGAGTCACCTAGTGCAG” was run?
Answer: The binding signal was 21200 fluorescence intensity (a.u.).

Question: “GATGTGTTAATTTTGCTTGGCACGATTACAGTTTGGTTACCGGAGTCACCTAGTGCAG” was tested. Which binding signal did it give?
Answer: Its binding signal is 4010 fluorescence intensity (a.u.).

Question: “TTAACATGATGCAAACTTAATTTTGGTCTCACCCTAATGTCGGAGTCACCTAGTGCAG” was tested. Which binding signal did it give?
Answer: Its binding signal is 7310 fluorescence intensity (a.u.).

Question: With “CTAAAATTTGATTTTGATCCCTTGCATACCCTTCCCGTCACGGAGTCACCTAGTGCAG” as the sequence, how does the binding signal read?
Answer: Its binding signal is 17500 fluorescence intensity (a.u.).

Question: With “TAATCGCATTGTAATTAATCACCAAAATCATTAGGGGCCTCGGAGTCACCTAGTGCAG” as the sequence, how does the binding signal read?
Answer: Its binding signal is 5100 fluorescence intensity (a.u.).

Question: Which binding signal does the source give for “TCTAAACCATCGGTCTGATTGTGGCGACCGATCTGGCGTGCGGAGTCACCTAGTGCAG” here?
Answer: The binding signal was 3430 fluorescence intensity (a.u.).

Question: How did the binding signal turn out when “TTTGACATATATTTTCTTGGATATGAGTAGGGAATGACTTCGGAGTCACCTAGTGCAG” was run?
Answer: Its binding signal is 8040 fluorescence intensity (a.u.).

Question: For “AAATTAATCATTTGGGTTAATATAGTCCTTGGACCCAGAACGGAGTCACCTAGTGCAG”, which binding signal is on record?
Answer: The binding signal was 4960 fluorescence intensity (a.u.).

Question: With “TTCAATTACACAGGTCAATTCGGTTTTCTTAGTGACCAACCGGAGTCACCTAGTGCAG” as the sequence, how does the binding signal read?
Answer: Its binding signal is 6010 fluorescence intensity (a.u.).

Question: For “AGGTAAATTAAGGTATAGAATTTCAGTTTTATCCATTACGCGGAGTCACCTAGTGCAG”, which binding signal is on record?
Answer: The binding signal was 4700 fluorescence intensity (a.u.).

Question: Which binding signal does the source give for “AAGATTTCCAGTCATCAGTCTGAGCGAGCTGTGCTTGTTGCGGAGTCACCTAGTGCAG” here?
Answer: The binding signal was 3360 fluorescence intensity (a.u.).

Question: For “TTGTCATTTCCAATCAAAATGACAAAATGTTTGTAGTTTTCGGAGTCACCTAGTGCAG”, which binding signal is on record?
Answer: Its binding signal is 8560 fluorescence intensity (a.u.).
